{"source": "the RNAGym collection of RNA variant scans (doi:10.7554/elife.90254)", "parents": {"B1": {"name": "LINE1-full (parent)", "chain": "UACGUAGGUGGUUUUCCCCUGAUAGUGCUAAGGGGGCCUGGAAGUUUGGACUGGGCAGAGCUCAACACAGCGUGGCAAAGUGGCUGUGGCUAGACUGCCUCUCUGGAUUCCUCGUCACUCAGCAGGGCAUCUCUGAGAGAAAUGCC"}}, "note": "Read counts are not given, so values of variants with three or more changes are uncertain.", "data": [{"variants_of": "B1", "experiment": "self-cleavage, relative activity (ratio to wild type); higher = more cleavage; in vitro, sequencing; the parent is a self-cleaving ribozyme", "values": [{"variant": "UACGUAGGUGGUUUCCCCCUGAUAGUGCUAAGGGGGCCUGGAAGUUUGGACUGGGCAGAGCUCAACACAGCGUGGCAAAGUGGCUGUGGCUAGACUGCCUCUCUGGAUUCCACGUCACUCAGUAGGGCAUCUCUGAGAGAAAUGCC", "self-cleavage": 1.5}, {"variant": "UACGUAGGUGGUUUCCCCCUGAUAGUGCUAAGGGGGCCUGGAAGUUUGGACUGGGCAGAGCUCAACACAGCGUGGCAAAGUGGCUGUGGCUAGACUGCCUCUCAGGAUCCCUCAUCACUCAGCAGGGCAUCUCUGAGAGAAAUGCC", "self-cleavage": 0.8}, {"variant": "UACGUAGGUGGUUUCCCCCUGAUAGUGCUAAGGGGGCCUGGAAGUUUGGACUGGGCAGAGCUCAACACAGCGUGGCAAAGUGGCUGUGGCUAGACUGCCCCUCUGGAUUCCUCGUCACUCAGCAGGGCAUCUCUGAGAGAAAUGCG", "self-cleavage": 0.68}, {"variant": "UACGUAGGUGGUUUCCCCCUGAUAGUGCUAAGGGGGCCUGGAAGUUUGGACUGGGCAGAGCUCAACACAGCGUGGCAAAGUGGCUGAGGCUAGACUGCCUCUCUGGAUUCCUCGUCACUCAGCAGGGCAUCUCUGGGAGAAAUGCC", "self-cleavage": 0.06}, {"variant": "UACGUAGGUGGUUUCCCCCUGAUAGUGCUAAGGGGGCCUGGAAGUUUGGACUGGGCAGAGCUCAACACAGCGUGGCAAAGUGGCUGUGGCUAGACUGCCUCCCUGGAUUCCUCGUCACCCAGCAGGGCAUCUCUGAGAGAAAUGCC", "self-cleavage": 0.92}, {"variant": "UACGUAGGUGGUUUCCCCCUGAUAGUGCUAAGGGGGCCUGGAAGUUUGGACUGGGCAGAGCUCAACACAGCGUGGCAAAGUGGCUGUGGCUAGACCGCCUCUCUGGAUUCCUCGUCACUCAGCAGAGCAUCUCUGAGAGAAAUGCC", "self-cleavage": 0.27}, {"variant": "UACGUAGGUGGUUUCCCCCUGAUAGUGCUAAGGGGGCCUGGAAGUUUGGACUGGGCAGAGCUCAACACAGCGUGGCAAAGUGGCUGUGGCUAGACUGCCUCUCCGGAUUCCUCGUCACUCAGCAGGGCAUCUCUGAGAGAAGUGCC", "self-cleavage": 1.71}, {"variant": "UACGUAGGUGGUUUCCCCCUGAUAGUGCUAAGGGGGCCUGGAAGUUUGGACUGGGCAGAGCUCAACACAGCGUGGCAAAGUGGCUGUGGCUAGACUGCCUCUCGGGACUCCUCGUCACUCAGCAGGGCAACUCUGAGAGAAAUGCC", "self-cleavage": 0.92}, {"variant": "UACGUAGGUGGUUUCCCCCUGAUAGUGCUAAGGGGGCCUGGAAGUUUGGACUGGGCAGAGCUCAACACAGCGUGGCAAAGUGGCUGUGGCUAGACUGCCUCUCUGGAUUCCACGUCACUCAGCAGGGCAUCUCUGGGAGAAAUGCC", "self-cleavage": 1.72}, {"variant": "UACGUAGGUGGUUUCCCCCUGAUAGUGCUAAGGGGGCCUGGAAGUUUGGACUGGGCAGAGCUCAACACAGCGUGGCAAAGUGGCUGUGGCUAGACUGCCUCUCUGGACUCCUCGUCACUCAGCAAGGCAUCUCUGAGAGAAAUGCC", "self-cleavage": 2.12}, {"variant": "UACGUAGGUGGUUUCCCCCUGAUAGUGCUAAGGGGGCCUGGAAGUUUGGACUGGGCAGAGCUCAACACAGCGUGGCAAAGUGGCUGUGGCUAGACUGCCUCUCUGGAUCCCUCGUCACUCAGCAGGGCAUCUCUGAGAGUAAUGCC", "self-cleavage": 1.36}, {"variant": "UACGUAGGUGGUUUCCCCCUGAUAGUGCUAAGGGGGCCUGGAAGUUUGGACUGGGCAGAGCUCAACACAGCGUGGCAAAGUGGCUGUGGCCAGACUGCCUCUCUGGAUUCCUCGUCACUCAGCAGGGCAUCUCUGAGAGGAAUGCC", "self-cleavage": 0.2}, {"variant": "UACGUAGGUGGUUUCCCCCUGAUAGUGCUAAGGGGGCCUGGAAGUUUGGACUGGGCAGAGCUCAACACAGCGUGGCAAAGUGGCUGUGGCUAGACUGCCUCUCCGGAUUCCUCGUCUCUCAGCAGGGCAUCUCUGAGAGAAAUGCC", "self-cleavage": 0.79}, {"variant": "UACGUAGGUGGUUUCCCCCUGAUAGUGCUAAGGGGGCCUGGAAGUUUGGACUGGGCAGAGCUCAACACAGCGUGGCAAAGUGGCUGCGGCUAGACUGCCUCUCAGGAUUCCUCGUCACUCAGCAGGGCAUCUCUGAGAGAGAUGCC", "self-cleavage": 0.63}, {"variant": "UACGUAGGUGGUUUCCCCCUGAUAGUGCUAAGGGGGCCUGGAAGUUUGGACUGGGCAGAGCUCAACACAGCGUGGCAAAGUGGCUGUGGCUAGACUGCCACUCUGGAUUCCUCGUCACUCAGCGGGGCAUCUCUGAGAGAAAUGCC", "self-cleavage": 1.09}, {"variant": "UACGUAGGUGGUUUCCCCCUGAUAGUGCUAAGGGGGCCUGGAAGUUUGGACUGGGCAGAGCUCAACACAGCGUGGCAAAGCGGCUGUGGCUAGACUGCCUCUCUGGAUUCCUCGUCACUCAGCAGGGCAUCUCUGAGAGACAUGCC", "self-cleavage": 2.04}, {"variant": "UACGUAGGUGGUUUCCCCCUGAUAGUGCUAAGGGGGCCUGGAAGUUUGGACUGGGCAGAGCUCAACACAGCGUGGCAAAGCGGCUGUGGCUAGACUGCCUCUCUGGAUUCCCCGUCACUCAGCAGGGCAUCUCUGAGAGAAAAGCC", "self-cleavage": 0.68}, {"variant": "UACGUAGGUGGUUUCCCCCUGAUAGUGCUAAGGGGGCCUGGAAGUUUGGACUGGGCAGAGCUCAACACAGCGUGGCAAAGCGGCUGUGGCUAGACUGCCUCUCUGGUUUCCUCGUCACUCAGCGGGGCAUCUCUGAGGGAAAUGCC", "self-cleavage": 2.3}, {"variant": "UACGUAGGUGGUUUGCCCCUGAUAGUGCUAAGGGGGCCUGGAAGUUUGGACUGGGCGGAGCUCAGCACAGCGUGGCAAAGUGGCUGUGGCUAGACUGCCUCUCCGGAUUCCUCGUCACUCAGCAGGGCAUCUCUGAGAGAAAUGCC", "self-cleavage": 0.92}, {"variant": "UACGUAGGUGGUUUGCCCCUGAUAGUGCUAAGGGGGCCUGGAAGUUUGGACUGGGCAGAGCUCUAUACAGCGUGGCAAAGUGGCUGUGGCUAGGCUGCCUCUCUGGAUUCCUCGUCACUCAGCAGGGCAUCUCUGAGAGAAAUGCC", "self-cleavage": 0.23}]}]}
